The whole screen tested about 130,000 compounds, of which about 1,900 (1.5%) were called active. The inconclusive results got no clear call from the source; some entries with a clear call stand among them for comparison. The call rests on the fitted dose curve; in most records, active means well fitted cell-killing curve with a large enough effect; inconclusive means small, poorly fitted or top-dose-only effect; inactive means no such curve, though single readings can be large or run the other way. A potency beside an inconclusive call is a rough fit, not a confirmed value.
Assay: qHTS Screen for Compounds that Selectively Target Cancer Cells with p53 Mutations: Cytotoxicity of p53ts Cells at the Nonpermissive Temperature; further: nearly all actives have a fitted effect of over 55% in size
Conditions: H1299-p53A138V viability at 39C, ATP luminescence, 24 h; activity change, negative = cell killing: at 46.1 µM (top of the series)
On the % scale 0 is the no-effect control and ±100 the full control effect; potency means the concentration at half of the fitted maximal effect; tags describe the fitted curve by direction and shape.

| SMILES | Potency | activity change, negative = cell killing |
| --- | --- | --- |
| CCN(C(=O)c1cc2c(=O)oc3ccc(C)cc3c2s1)c1ccccc1C | inconclusive: 7.94 µM [cytotoxic, single point] |  |
| CCN(c1ccccc1)S(=O)(=O)c1nnc(NC(=O)COc2cccc(C)c2)s1 | inconclusive: 0.0126 µM [cytotoxic, full curve, poor fit] |  |
| COc1ccc(Cl)cc1NC(=O)C1CSC(c2ccncc2)=N1 (stereo unspecified) | inactive |  |
| Cc1ccc(C(C)C)c(OCCSc2nc3ccccc3n2CC(O)CO)c1 (stereo unspecified) | inconclusive: 12.6 µM [cytotoxic, partial curve] |  |
| CCc1nnc2c3ccccc3nc(N3CCN(c4cc(C)ccc4C)CC3)n12 | inconclusive: 6.31 µM [cytotoxic, partial curve] |  |
| O=C(NCc1ccco1)Nc1ccc(Br)cc1Cl | inactive |  |
| COc1ccc(N2CCN(S(=O)(=O)CCNC(=O)c3c(F)cccc3Cl)CC2)cc1 | inconclusive: 0.398 µM [cytotoxic, full curve] |  |
| COc1ccc(CCNC(=O)Cn2c(=O)c3cccn3c3ccccc32)cc1OC | active: 15.8 µM |  |
| CCCCOc1ccccc1C1CC(=O)Nc2cc(OC)c(OC)cc21 (stereo unspecified) | inactive |  |
| O=C(CSC1=NCCS1)Nc1nc2c(s1)CCCC2 | inconclusive: 3.98 µM [cytotoxic, partial curve] |  |
| CCC(=O)Nc1cc2nn(-c3ccc(C)cc3)nc2cc1C | inconclusive: 2.51 µM [cytotoxic, full curve] |  |
| Cc1cc(N)c2ccccc2[n+]1CCCCCCCCCCCCCC[n+]1c(C)cc(N)c2ccccc21 | active: 12.6 µM |  |
| CN1CCN(c2ncc3nc(-c4cccs4)c(=O)n(Cc4ccc(F)cc4)c3n2)CC1 | inactive |  |
| CN1CCN2c3ccccc3Cc3ccccc3[C@@H]2C1 | inconclusive: 25.1 µM [cytotoxic, single point] |  |
| CCCn1c2ccccc2c2nnc(SC(CC)C(=O)Nc3cc(C)on3)nc21 (stereo unspecified) | inconclusive: 35.5 µM [cytotoxic, single point] |  |
| CN(Cc1ccccc1)c1nc2c(c(=O)[nH]c(=O)n2C)n1Cc1ccccc1Cl | inactive |  |
| Cc1c(C(=O)N(C)C)sc2c1c(=O)n(-c1ccc(Cl)c(Cl)c1)c(=O)n2CC(=O)Nc1ccc(Br)cc1F | inactive |  |
| CCS(=O)(=O)c1ncc(Cl)c(C(=O)N(Cc2ccccc2)c2ccc(OC)cc2)n1 | active: 5.01 µM |  |
| CC(C)CCNc1ncnc2c1cnn2-c1cccc(Cl)c1 | inconclusive: 0.005 µM [cytotoxic, full curve, poor fit] |  |
| CCC1CN(C(=O)N2CCC(C(=O)NCc3ccco3)CC2)c2ccccc2O1 (stereo unspecified) | inactive |  |
| Cc1ccc(-n2c(SCC(=O)Nc3c(C)cccc3C)nc(O)c(C)c2=O)cc1 | inactive |  |
| Cn1c(Oc2ccccc2)nc2c1c(=O)n(Cc1ccc(Cl)cc1Cl)c(=O)n2C | inactive |  |
| COc1ccc(OC)c(Nc2c3c(nc4ccccc24)CCC3)c1 | inconclusive: 2.51 µM [cytotoxic, partial curve] |  |

| SMILES | Potency | activity change, negative = cell killing |
| --- | --- | --- |
| NC(=O)c1cc(Br)cc2c3c([nH]c12)CCCC3 | inconclusive: 31.6 µM [cytotoxic, single point] |  |
| COc1cccc(Nc2sc(C(=O)c3ccc(Cl)cc3)c(N)c2C(=O)NCCc2ccc(OC)c(OC)c2)c1 | inconclusive: 12.6 µM [cytotoxic, single point] |  |
| CN1CCC[C@@H](CC2c3ccccc3Sc3ccccc32)C1 | inconclusive: 12.6 µM [cytotoxic, partial curve] |  |
| Cc1ccc(C(=O)CC2(O)C(=O)N(Cc3ccccc3)c3ccccc32)c(C)c1 (stereo unspecified) | inconclusive: 15.8 µM [cytotoxic, single point] |  |
| CCOC(=O)C1CCCN(C(=O)c2ccc(NC(=O)c3nsc4ccccc34)cc2)C1 (stereo unspecified) |  | inconclusive: -31.9% [cytotoxic] |
| CC1(C)Cc2ccccc2-c2nnc(SCC(=O)N3CCN(c4ccccc4)CC3)n21 | inactive |  |
| COc1ccc(-c2nc(Cn3c(=O)cc(C)c4c(C)nn(-c5ccccc5)c43)c(C)o2)c(OC)c1 | inconclusive: 10 µM [cytotoxic, partial curve] |  |
| CC(C)OCCCN1C(=O)c2[nH]nc(-c3ccccc3O)c2C1c1cccc(OCc2ccccc2)c1 (stereo unspecified) | inconclusive: 25.1 µM [cytotoxic, single point] |  |
| CN1CCc2c(sc3c2C(=O)NC(c2cccs2)N3)C1 (stereo unspecified) | inactive |  |
| C=CC(=O)c1ccc2ccccc2c1 | active: 10 µM |  |
| Cc1ccccc1Cn1c(=O)n(CCCCC(=O)NCCc2ccccc2)c(=O)c2ccccc21 | inactive |  |
| CC(C)(C)OC(=O)N1CCC(c2c(C(=O)Nc3ccc4c(c3)OCO4)cnn2-c2ccc(F)cc2F)CC1 | inconclusive: 5.01 µM [cytotoxic, partial curve, poor fit] |  |
| COc1ccc(NC(=O)/C(C#N)=C/c2ccc(C)o2)cc1 | inconclusive: 15.8 µM [cytotoxic, partial curve] |  |
| O=C(c1ccncc1)N1CCC[C@@]2(CCN(c3cccc(-c4ccccc4)c3)C2)C1 | inactive |  |
| O=c1[nH]c2ccccc2n1CCCOc1ccccc1 | inactive |  |
| CC(C)c1ccc(S(=O)(=O)Nc2ccc(O)c(Sc3nc4ccccc4s3)c2)cc1 | inconclusive: 12.6 µM [cytotoxic, single point] |  |
| Cc1cc(Br)ccc1NC(=O)CNC(=O)CN1C(=O)NC2(CCCCCC2)C1=O | inactive |  |
| COCCNc1cc(N2CCN(C3CCCCC3)CC2)c2noc3c2c1C(=O)c1ccccc1-3 | inactive |  |
| COc1ccc(-n2ncc3c(N4CCCc5ccccc54)ncnc32)cc1 | active: 10 µM |  |
| Cc1ccc(N2C(=O)c3n[nH]c(C)c3C2c2ccc(C(C)C)cc2)cc1 (stereo unspecified) | inconclusive: 31.6 µM [cytotoxic, single point] |  |
| CCOc1ccc(Sc2cc(C(=O)NC(C)CC)c3ccccc3n2)cc1 (stereo unspecified) | inconclusive: 15.8 µM [cytotoxic, single point] |  |
| CCOc1ccc(/C=C/c2nc(C#N)c(NC(C)CC)o2)cc1 (stereo unspecified) | inconclusive: 3.98 µM [cytotoxic, partial curve] |  |
| Cc1ccc(C)n1-c1c(C(=O)NCCCN2CCN(c3ccc(F)cc3)CC2)sc2ncccc12 | inconclusive: 0.251 µM [cytotoxic, full curve, poor fit] |  |
